# According to the supplement of paper PMC3334620:
# Whole data set: some 33,000 sequences, median “E-score (-0.5 to 0.5)” near -0.041, cut for the highest 2% near 0.37. The list shows a part of the results.
# Target: T1, Ecm22 (UniProt Q05958)
# T1 sequence: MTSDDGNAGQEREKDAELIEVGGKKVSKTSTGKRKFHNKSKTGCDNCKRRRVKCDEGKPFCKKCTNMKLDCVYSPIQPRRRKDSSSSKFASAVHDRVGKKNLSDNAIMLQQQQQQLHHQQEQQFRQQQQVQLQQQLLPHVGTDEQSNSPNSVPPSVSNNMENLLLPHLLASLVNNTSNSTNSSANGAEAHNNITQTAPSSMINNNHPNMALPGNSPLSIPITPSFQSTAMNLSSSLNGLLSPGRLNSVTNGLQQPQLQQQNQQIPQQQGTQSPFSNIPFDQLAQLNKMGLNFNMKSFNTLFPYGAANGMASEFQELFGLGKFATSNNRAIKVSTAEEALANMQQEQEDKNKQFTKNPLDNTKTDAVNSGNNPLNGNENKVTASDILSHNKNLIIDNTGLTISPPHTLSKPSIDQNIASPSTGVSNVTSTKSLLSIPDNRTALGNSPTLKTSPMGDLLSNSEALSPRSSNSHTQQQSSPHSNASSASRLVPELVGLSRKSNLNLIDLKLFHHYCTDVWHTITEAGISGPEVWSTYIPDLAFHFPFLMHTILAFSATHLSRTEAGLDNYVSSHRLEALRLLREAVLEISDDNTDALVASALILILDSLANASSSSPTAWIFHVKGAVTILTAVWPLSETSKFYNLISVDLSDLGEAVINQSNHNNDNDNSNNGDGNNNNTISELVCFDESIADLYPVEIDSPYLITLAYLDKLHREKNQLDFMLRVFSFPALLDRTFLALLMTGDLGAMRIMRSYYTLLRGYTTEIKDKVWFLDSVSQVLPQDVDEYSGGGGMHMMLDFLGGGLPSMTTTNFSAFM
# Assay: PBM E-score (8-mer binding enrichment) (E-score (-0.5 to 0.5)); higher = stronger / more preferred TF binding; most listed sequences are background and not binding sites
# Settings: protein concentration: 200 nM; construct: GST-full length
# Method in brief: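 Universal all-10-mer Agilent arrays, fresh or stripped once, were converted to double-stranded form by primer extension. GST-tagged yeast transcription factors from PURExpress in vitro transcription/translation, full-length or DNA-binding domain only, were applied at about 100-200 nM and detected with fluorescent anti-GST. After masliner normalisation, the Universal PBM Analysis Suite scored each ungapped eight-base word together with its reverse complement by E-score.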
row,Sequence,PBM E-score
1,ATGCCCCG,-0.175
2,ACATCCCC,-0.184
3,GAGATCGC,0.0991
4,ACGGTGAG,0.144
5,CATCCTGA,0.171
6,CCATGGTA,-0.00214
7,AATGTACC,-0.0709
8,TGAACTAA,-0.0481
9,AAGTTATC,-0.00283
10,CTCGAGAG,-0.291
11,GGATAACC,0.087
12,CCTACTCA,-0.216
13,CGTTTCCC,0.261
14,CCCAGTAG,-0.182
15,GGCATAAA,0.0318
16,AAAGACAG,-0.0492
17,GTAGGAGA,-0.259
18,AGAGGGCG,-0.108
19,GACCTGAC,-0.172
20,ACAGTGAA,-0.166
21,GAGGCCCA,-0.101
22,AGCCCCTA,-0.216
23,AAGCGGAG,-0.0139
24,CGCACAGA,0.0318
25,CGCGACAG,-0.121

row,Sequence,PBM E-score
1,CTCCGTAA,0.187
2,CCCATCTC,-0.0895
3,GAACAACA,0.0183
4,AGAAGACG,-0.0345
5,CGGGCAGA,0.0491
6,CACTCAAA,0.0318
7,CAGTGCGG,-0.0741
8,CTTTCTAC,-0.0484
9,TCATTACA,0.0242
10,CTAAACTC,-0.148
11,AGATTACT,-0.268
12,ATTACATA,0.0107
13,GCGGTGTA,0.118
14,CTAGAAAG,-0.263
15,AGATACCT,-0.116
16,ATATCAGC,-0.0788
17,GGGCAATA,-0.0635
18,TGAATGAA,0.0741
19,CGACTTTA,0.0873
20,AAAGACGG,-0.175
21,AACGTGTA,-0.00335
22,CACCCCGC,0.0147
23,ATACAGCC,-0.0802
24,AATATGGA,-0.0483
25,ACGCACCT,-0.0713

row,Sequence,PBM E-score
1,ATGGACCG,0.0932
2,CCATACCA,-0.0996
3,CTTGTGAC,-0.272
4,ATTGAGGC,-0.175
5,CATGGTTC,-0.00681
6,AGCTCAGA,-0.0723
7,CAGGTTCC,-0.265
8,GGTCTTAC,-0.0646
9,ACTTGGCC,-0.094
10,CGCCTTCA,-0.235
11,AACTGGAA,-0.166
12,CCGCTTGC,-0.015
13,CATCAATC,-0.0627
14,AGTGTGTG,0.00324
15,GAGGAACC,-0.0663
16,CCACTGTC,-0.046
17,AGTTAAAG,0.0343
18,CGCTTCTA,0.124
19,GCACACTA,-0.0692
20,TGCTAGCA,0.106
21,CCCGAAGG,0.045
22,GCGTTTAA,0.28
23,CCGCCTTC,-0.112
24,AAGTGCGA,0.129
25,CGCGCGAA,0.182

row,Sequence,PBM E-score
1,CCAGGAAA,-0.207
2,AGAACGCG,0.186
3,ACCATCTG,-0.195
4,CCTTCCTA,-0.202
5,ACATTCCG,-0.0408
6,GACGGCGA,0.0565
7,AACGAAGT,0.419
8,AAGCGAAA,0.188
9,ACCGTGGC,-0.113
10,AATCAAAG,-0.192
11,ATGATGAC,-0.0358
12,CTCAGCAA,0.0438
13,AACACATG,-0.0819
14,CAGGGCTA,-0.265
15,AGTCTATA,0.0901
16,AATTAAAG,-0.191
17,GCTATCCC,0.00169
18,ACGCTTTG,0.0782
19,AAGCAAAT,0.0192
20,ATCACGAG,0.168
21,AGGACCAG,-0.228
22,CAGCCTAG,-0.247
23,AGCGTAAG,0.0602
24,ATTGAACG,0.32
25,ATCGTTGC,0.347

row,Sequence,PBM E-score
1,CTGGTAAA,-0.0731
2,ACTGGCGC,-0.0524
3,CCCTTCTA,-0.258
4,AGCCGCCT,-0.125
5,GGCACAGA,-0.0886
6,CGCGGACG,0.0162
7,ACTCTGAT,-0.153
8,AGCCCCCG,-0.137
9,CGCCAACG,0.0795
10,ACAAGATA,-0.0925
11,GGACGGAA,-0.0866
12,GCAGCGAC,0.0343
13,GGTTGCCA,-0.171
14,CTAAGCGA,0.385
15,ATGACTAC,-0.0246
16,GCTCCTAC,-0.0343
17,GCGCAGCA,-0.306
18,CCAGTAAG,0.0694
19,CATGTCGC,0.115
20,ACGTCCCA,-0.215
21,AGCTAGGC,-0.233
22,AGGGTAGA,-0.115
23,ACTGCGAA,-0.134
24,GGTACGGA,0.413
25,GAGGGGCA,-0.089

row,Sequence,PBM E-score
1,GGAAGGTA,-0.0111
2,GAGTAACC,0.1
3,CAATGAGG,-0.0148
4,AGTGCTAT,-0.0327
5,CAATAGGC,-0.117
6,CTGTATGC,-0.121
7,GAAAGATC,0.0489
8,GGGGGGAA,-0.223
9,AGAGAAAC,0.00099
10,CCAATGCA,-0.202
11,GCGAGAAA,0.133
12,AACCGGCC,-0.0418
13,GTGACTGA,-0.142
14,GTAAACGA,0.485
15,AGAACCCC,-0.179
16,CTGGGGCA,-0.266
17,TAACGTCA,0.0349
18,AAGGCGCA,-0.0313
19,AAAAGTAA,-0.108
20,ACTGCCTA,-0.112
21,CCACCTCG,0.137
22,CGATAGCC,-0.0236
23,CCGAAAGG,-0.0107
24,CACGACGG,0.167
25,ACATCCAG,-0.0439

row,Sequence,PBM E-score
1,AGGTGAAT,-0.126
2,AACTTCAT,-0.13
3,GGGATTCA,-0.0716
4,TGTATGAA,0.0335
5,CCTGTTCG,0.159
6,AGTGTCAA,-0.131
7,ACTAGACT,0.0101
8,ACGGTGCC,0.16
9,ACAAAGTC,-0.0855
10,CAGATATC,-0.0887
11,AGTGAAAA,-0.112
12,CCGCTGAC,-0.153
13,CCCGCACG,-0.12
14,ACCTAGGT,0.0335
15,GTATCGCA,0.16
16,GAATCACC,0.109
17,CGGGACCG,0.187
18,AATAAGCC,-0.285
19,CGCAGTTA,-0.0607
20,ACTGGTCT,-0.123
21,ATGAGCAT,-0.104
22,CCGCCTGA,-0.0662
